# Test results as given in the supplement of paper PMC3334620.
# The full ranking holds about 33,000 sequences; the median of “E-score (-0.5 to 0.5)” is about -0.04, and the highest 2% start at about 0.36. The list shows a part of the results.
# Target: T1, Hmlalpha2 (UniProt P0CY09)
# T1 sequence: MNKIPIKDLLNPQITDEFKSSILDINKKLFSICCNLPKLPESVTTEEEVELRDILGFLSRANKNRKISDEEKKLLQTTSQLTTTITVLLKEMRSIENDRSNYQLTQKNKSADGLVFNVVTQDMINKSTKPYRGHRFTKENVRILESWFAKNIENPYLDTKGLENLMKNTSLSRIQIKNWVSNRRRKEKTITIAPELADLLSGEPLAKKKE
# Assay: PBM E-score (8-mer binding enrichment) (E-score (-0.5 to 0.5)); higher = stronger / more preferred TF binding; most listed sequences are background and not binding sites
# Details: protein concentration: 200 nM; construct: GST-full length
# Method: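 Universal 'all 10-mer' protein binding microarrays (Agilent AMADID 015681) probed with GST-tagged S. cerevisiae TFs (full-length or DBD) made by in vitro transcription/translation (PURExpress), about 100-200 nM. Bound TF was detected with fluorescent anti-GST. Each ungapped 8-mer (which stands for itself and its reverse complement) is scored by the PBM enrichment score (E-score), a modified Wilcoxon-Mann-Whitney statistic from -0.5 to +0.5, computed with the Universal PBM Analysis Suite. Scale: above 0.35 generally sequence-specific binding.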
row,Sequence,PBM E-score
1,AGAACATA,0.248
2,ATCATACG,0.203
3,AAGGAACG,-0.0584
4,AACACCTG,0.193
5,ATACTGAA,0.0957
6,AGCCGCCG,-0.309
7,GGCCTAAC,0.0427
8,CAACTGCC,-0.0614
9,GCTAGGGA,-0.305
10,ATCCACCC,-0.258
11,ACCTGGCG,0.0619
12,TCAGTGAA,-0.0967
13,CCATGATC,-0.128
14,AGGGAACG,-0.224
15,AACCTATT,-0.12
16,ACTGATTG,-0.0737
17,CCCTAAGA,-0.201
18,CCAAGACC,-0.287
19,CTTTTTCA,0.0426
20,AGATATAA,0.127
21,ATCGTTCA,0.0127
22,CTAAAGAC,0.051
23,AGCTATAA,0.0724
24,CGGGGAAG,-0.189
25,ACGTGAAG,0.117

row,Sequence,PBM E-score
1,ATGAGCAC,-0.067
2,CCACGTAC,0.0262
3,CAGCGAGA,-0.0719
4,AAAAATCC,-0.17
5,GATCCAGC,-0.303
6,AAAGAAAC,0.211
7,ATTCTGGC,-0.13
8,CTCAAATC,-0.153
9,CCACGGCC,-0.281
10,AACCAAAG,0.105
11,ACTGGCCC,-0.194
12,AATGTGGG,-0.134
13,CCGGGGTA,-0.17
14,CCAGGGGG,-0.372
15,GCGAACAA,0.193
16,GCGTCTCA,-0.153
17,AACAGGGC,0.126
18,AAGAGACA,-0.0706
19,ACCGCCCA,-0.1
20,ACCTACTA,0.081
21,TTACCGAA,0.0996
22,ATAGGATC,-0.15
23,ATTATGCG,0.0664
24,TGATATCA,0.114
25,GCTTACCA,0.121

row,Sequence,PBM E-score
1,CTATCACA,0.063
2,ACTGTGAG,-0.0534
3,AGCATTCC,-0.0993
4,CAAACCTA,0.123
5,CAACATAG,0.286
6,CTTTTTTA,0.143
7,AATCAGTA,0.14
8,GCGATGTA,0.366
9,AATGCTTC,0.043
10,ACCTCTGC,-0.204
11,GGACGTGA,-0.136
12,AGTCTGTG,-0.0941
13,AGTACCAG,-0.00021
14,GAGTAAAC,0.186
15,ATTACGTA,0.431
16,AGCTCGGG,-0.135
17,GTTAGAAC,0.15
18,TCAACCAA,0.124
19,AATGAGAC,-0.281
20,TGATGTAA,0.389
21,ACCTTGAT,-0.0635
22,GTGGTTCA,0.0692
23,CACTACAC,0.394
24,TAACCGGA,-0.0408
25,CTTTGGCC,-0.0664

row,Sequence,PBM E-score
1,CGTTTGGA,-0.163
2,CGGGCATA,-0.237
3,AAGCTGCG,-0.00352
4,GGTGTCCA,-0.143
5,ACTGAAAG,-0.00652
6,CCAGCGTA,0.0228
7,CCCTTGGA,-0.119
8,GCGTTTCA,0.07
9,CGTTACAC,0.385
10,ATTACACC,0.382
11,CTACGCAC,0.17
12,CTACTTAC,0.0584
13,CATCTGAC,-0.162
14,GGTGGGAC,-0.192
15,AACAATTA,0.204
16,GCCGAACC,-0.38
17,AATTCTGT,-0.0762
18,AACTATCC,-0.331
19,AGCTATGC,-0.036
20,CAATGGCA,-0.0583
21,CACATAGC,0.143
22,CCTACCCG,-0.051
23,GAGTAGTA,0.0394
24,CCAGTACC,-0.192
25,AGCCGGGG,-0.3

row,Sequence,PBM E-score
1,ATGGCGCA,-0.0727
2,CGATCGAA,-0.113
3,AATCCGCG,0.077
4,ACTATTTA,0.165
5,TATTTGCA,0.233
6,TGTCCACA,0.119
7,GGAGCCGA,-0.213
8,CCCAGTTC,0.0115
9,AAGTATTG,0.0978
10,GTGTTTGA,0.307
11,ACACTGAT,-0.098
12,AGTATTCC,0.0138
13,GCTCCGAA,-0.111
14,CAGCACTA,-0.0651
15,AATCTTCA,0.0756
16,CGACCCAC,-0.132
17,AGGAAGCC,-0.247
18,GAACGGAC,-0.135
19,AAGCATTG,0.0469
20,AACAAGTG,0.276
21,AAGGGTAC,-0.00026
22,AGCCTTAA,-0.107
23,AGGAGATC,-0.167
24,GTGGAGCA,-0.0957
25,CCGAGGTA,-0.101

row,Sequence,PBM E-score
1,GGCATCCA,-0.215
2,GAATTCAA,0.0639
3,GGTTAGCA,-0.0838
4,AAAAATGC,-0.0342
5,GAAGCTTC,-0.459
6,CTTGCCGC,-0.175
7,CTATTCGA,-0.0276
8,AGATGCAC,-0.126
9,CAAAGTCA,-0.0618
10,CTAATTAA,0.178
11,AACAATAT,0.341
12,ACAAACCC,0.0827
13,CACCGGAG,-0.345
14,AGGGGAGC,-0.33
15,GGACGGCC,-0.251
16,TACGCCCA,-0.05
17,CATCCTTC,0.0706
18,CGGTATAG,-0.232
19,CTTAATGC,-0.0376
20,AAACAATT,0.0562
21,AAACGGTG,0.0442
22,CATACAAC,0.093
23,CCCCTCAG,-0.321
24,AACCTGGA,-0.0997
25,CTCCTACA,0.114

row,Sequence,PBM E-score
1,CCGGATTC,-0.0975
2,AACCACTT,-0.037
3,AGCTTCCC,-0.335
4,TGCTACAA,0.218
5,AAGTCTAA,0.0293
6,CAATTTAG,0.0321
7,TCTCATAA,-0.0311
8,TGTAGAAA,0.429
9,TAGGTAAA,0.189
10,CGGGTCGC,0.0563
11,ATGCTCAC,-0.0507
12,CCTTCGCC,-0.202
13,ACATCTCC,0.036
14,ATTCGCGG,-0.0108
15,ATGTCCCA,-0.311
16,GGATGCTA,-0.152
17,ATTCCAAG,-0.078
18,TAAGTGCA,0.0149
19,ATGTGGTC,-0.0423
20,AATCATAA,0.0911
21,CCGCTACC,-0.158
22,GATAGGGA,-0.236
23,ACCCAAAT,0.12
24,AGACACTA,0.0154
25,GATAGATC,-0.0828

row,Sequence,PBM E-score
1,CCAGTTGA,-0.069
2,GAGAAAGC,-0.109
3,AACCACGT,0.152
4,ACTCCTGA,-0.199
5,TACCTGCA,0.0424
6,CACTCGGA,-0.0428
7,ACCCCGCT,-0.312
8,GCTGATTA,0.248
9,AGAAACGG,0.0693
10,GACGCGTA,0.383
11,GGTAACAA,0.263
12,CATACTAC,0.173
13,AGTACACG,0.437
14,AAAATTCT,0.13
15,GAAATCAC,0.22
16,CTGTTCCC,-0.194
17,CGGGGATC,-0.228
18,AAGTTGTC,0.0427
19,AGTCGCCG,-0.111
20,CAGCTCGA,-0.254
21,CACACGAC,0.223
22,AAGTTGTG,0.205
23,AACAAATA,0.265
24,AAAAACGT,0.121
25,AGGCTTAC,-0.0131

row,Sequence,PBM E-score
1,CGGCATAC,-0.0723
2,TCCCACGA,-0.168
3,CCGGACTA,-0.162
4,GCTAGGTA,-0.00681
5,AGGGTAAG,-0.0858
6,AGATGAAT,-0.0634
7,TAAACGCA,0.242
8,CTCTTTAA,0.0786
9,ATAACTCA,0.183
10,GAACGTAC,0.149
11,GGGCATAA,-0.127
12,ACTCTTGA,-0.0484
13,TCAATTAA,0.197
14,GTGATCTA,0.0484
15,CATACGTA,0.298
16,ACCACATA,0.126
17,ACGCATCG,0.135
18,AGGCTGAT,-0.179
19,CCAAAAAA,0.168
